# From PubChem BioAssay AID1345082 (National Center for Advancing Translational Sciences (NCATS), 2018)
# The whole screen tested about 94,000 compounds, of which about 4,000 (4.3%) were called active. Inconclusive means that the source gave no clear call. Such entries were picked first, then a sample of the others. Calls follow the shape of the dose curve; as a rule, active = well fitted inhibition curve with a large enough effect; inconclusive = small, poorly fitted or top-dose-only effect; inactive = no such curve, though single readings can be large or run the other way. A potency beside an inconclusive call is a rough fit, not a confirmed value.
# Test: Cytotoxic Profiling in NIH 3T3 Cell Line of Diverse Libraries Using Quantitative High-Throughput Screening; also: nearly all actives have a fitted effect of over 55% in size
# Settings: NIH 3T3 viability, CellTiter-Glo ATP luminescence, 48-72 h; activity change, negative = cytotoxicity: at 96.7 µM (top of the series) unless noted; series mostly up to 96.7 µM
# Outline: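 NIH 3T3 cells at 400 cells/well received 23 nL of compound by pintool and were incubated 48 or 72 h at 37 °C. Viability was read as ATP-coupled CellTiter-Glo luminescence.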
# % is scaled to controls: 0 for no effect and ±100 for the full control effect; potency is read from the fitted curve at half-maximal effect; tags tell the direction and shape of the fitted curve.
Structure (SMILES),Potency,outcome,"activity change, negative = cytotoxicity"
COC[C@H]1NC(=O)CC[C@H]1C(=O)NC1CCN(Cc2ccccc2)CC1,"inconclusive: 70.8 µM [inhibitor, single point]",–,–
CN(C)C(=O)[C@@H]1CN(Cc2c(F)cccc2Cl)C[C@H]1CO,–,inactive,–
CCCN1CCOc2ccc(C(=O)NCc3ccccc3F)cc2C1,–,–,inactive: -5.97%
O=C1CC(c2ccccc2)N(C(=O)C2CC2)CCCN(C(=O)c2ccncc2)CCN1 (stereo not given),"inconclusive: 50.1 µM [inhibitor, single point]",–,–
O=C(c1coc(COc2ccc(F)cc2Cl)n1)N1CCCCO1,–,–,inactive: -1%
CSc1ccc(-c2cccc(C(=O)NCC(=O)N(C)C)c2)cc1,"inconclusive: 56.2 µM [inhibitor, partial curve, poor fit]",–,–
COc1cc(C(=O)NC2CCCN(c3cc(-c4ccc(F)cc4)[nH]n3)C2)cc(OC)c1OC (stereo not given),"inconclusive: 70.8 µM [inhibitor, partial curve, poor fit]",–,–
COc1ccc(S(=O)(=O)N2C[C@@H](F)C[C@H]2C(=O)N2CCCCC2)cc1,"inconclusive: 70.8 µM [inhibitor, single point]",–,–
O=C1Nc2ccccc2C12CN(Cc1ccc(C(F)(F)F)cc1)C2,"inconclusive: 70.8 µM [inhibitor, partial curve, poor fit]",–,–
O=c1c2c(CO)c(-c3ccc(F)cc3)nn2ccn1Cc1ccc(OC(F)(F)F)cc1,"inconclusive: 28.2 µM [inhibitor, partial curve]",–,–
Cc1cccc(C)c1-c1nnc2ccc(C(=O)NC3CC3)cn12,inactive,–,–
CCn1ncc(CN2CCCCCCNC(=O)[C@@H]3CCC[C@@H]32)c1C,"inconclusive: 79.4 µM [inhibitor, partial curve, poor fit]",–,–
Cc1cc(NC(=O)c2ccc3c(c2)N(C)C2CCCCN2C3=O)ccc1Cl (stereo not given),–,–,inactive: -24.5%
CN(C)c1ccc(-n2c(=O)c(C(=O)N3CCCC3)nc3cccnc32)cc1,–,–,inactive: -8.65%
CCCN(Cc1cccc(OC)c1)C(=O)C(c1cccnc1)N1CCOCC1 (stereo not given),–,–,inactive: -18.2%
COc1ccc(-c2ccc(C(=O)N3CCCCC3)cc2)nn1,active: 28.2 µM,–,–
COc1ccc(S(=O)(=O)N2CCCN(C)c3ccccc32)cc1Cl,"inconclusive: 39.8 µM [inhibitor, partial curve, poor fit]",–,–
Cc1ccc(NC(=O)N2CCCCC2c2noc(COc3ccc(F)cc3)n2)cc1F (stereo not given),"inconclusive: 28.2 µM [inhibitor, full curve]",–,–
COc1ccc(-c2noc([C@@H]3C[C@@H](O)CN3Cc3cc4ccccc4o3)n2)cc1,–,–,inactive: -9.46% [at 174 µM]
COc1cccc(C(=O)NC2CCCN(Cc3ccc(-c4cccc(OC)c4)cc3)C2)c1 (stereo not given),active: 25.1 µM,–,–
